Experimental findings from paper PMC12136788 are described below.

This is one part of the list.

T1: UNK ZnF1-3 (human, UniProt Q9C0B0 31-174)
T1 sequence: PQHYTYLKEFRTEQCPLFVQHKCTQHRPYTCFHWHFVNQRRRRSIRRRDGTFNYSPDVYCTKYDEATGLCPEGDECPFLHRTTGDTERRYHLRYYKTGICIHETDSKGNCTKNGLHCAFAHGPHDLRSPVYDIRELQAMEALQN

B1: chr1:163112212:163112213:-_ENSG00000143248_ENST00000313961|hu_hu|hu_hu_hu_mus_False|38_98 (ssRNA)
RNA: GGGAGUUCUACAGUCCGACGAUCUUUUAUUAUCAGUAAGCAUGAGUUACAUACUAGGCAAAGUAUUGGAUACAAUAAUCAGGAAACAAACACUAUUUUUCUUGAAUUUAAAACUUUAUGAGCGAAGUGCUGGCACAGGACUUACAACAGAGGAUUGAGCAUCA
B2: chr16:46732117:46732118:+_ENSG00000091651_ENST00000219097|hu_hu|FALSE|FALSE (ssRNA)
RNA: GGGAGUUCUACAGUCCGACGAUCCAAGGGACUGCCAUUCACUUAAAGCAAAAUGGCUCCAAUUCCGUUUAUCUAUCUAUCUAUCUAUCUAUCUAUCUAUCCAUCUAUCUAUCUAUCUAUCUAUAAGUCUCGCUCUGUCACCCACAACAGAGGAUUGAGCAUCA
B3: chr19:40827925:40827926:-_ENSG00000160392_ENST00000392035|hu_hu|FALSE|FALSE (ssRNA)
RNA: GGGAGUUCUACAGUCCGACGAUCGCUGCUCCCCCGGGGCCCCACCAGAGUCCUCUUAAUGGUGACCUUGACCUCGGCUGAGGACUUACUCUUGGUGCUGGUGACCUGGCUGUCCUGGGCCUCGGGCACAAGGGCAGCUGCGCCCAACAGAGGAUUGAGCAUCA
B4: 39180548_39183902_2538_CDS_ENSMUSG00000037475_ENSMUST00000047037|mouse|control|control (ssRNA)
RNA: GGGAGUUCUACAGUCCGACGAUCCACCAUCUCACAUGAUGUAAUGUAUUUAUGGACUUUAUGUUGCUGUUUACUUCCCUUUUCUGAUUUUUUAAGUUCAUCGUAUUUUGACGAAAUAUGGUGUGCAUACAUUGGCCUAGACAGCAACAGAGGAUUGAGCAUCA
B5: chr3:33703679:33703680:+_ENSMUSG00000027677_ENSMUST00000099153|mus_mus|FALSE|FALSE (ssRNA)
RNA: GGGAGUUCUACAGUCCGACGAUCUUCUAACUGCCCUCCCCUUUCUACAAGUGUCUGGCAGAGAUAUUUCCUUGCAUUCCUAUGAGUUGGGCAGUUUUCUAAUGCGAGCUCAAAAUCUUCUAUUGCUUUGUUUAGACUUCCUUUCAACAGAGGAUUGAGCAUCA
B6: chr2:48034816:48034817:-_ENSG00000138081_ENST00000403359|hu_hu|FALSE|FALSE (ssRNA)
RNA: GGGAGUUCUACAGUCCGACGAUCAUAUUUCUCAAUCUGAAUACAUGUUAAAAAAAAAAAAUCAAAAGGAACGCAGAAGUGCUAGCUCACAUUUUUACCAUAUUACAAAAGCAAUUGGUACCCAUGUCCAUAAAGGCAGCAACACAACAGAGGAUUGAGCAUCA
B7: chr4:140556289:140556290:+_ENSMUSG00000036622_ENSMUST00000037055|mus_hu|FALSE|FALSE (ssRNA)
RNA: GGGAGUUCUACAGUCCGACGAUCGAUGGAGCUCACCAGGCCCCCUUUUGCCGUGCAGAACCCUGUGCGGGUCACCACUGCCAGGACGUGCGGUCCCACAUAGGCCCGGGCCUGCAAGAUGAGGGUCCCGCAGAAGAGUGUGUGCAACAGAGGAUUGAGCAUCA
B8: chr15:65869917:65869918:+_ENSG00000074696_ENST00000261875|hu_hu|motif|central (ssRNA)
RNA: GGGAGUUCUACAGUCCGACGAUCGCCAUUUUUUAUGUUUGUGCACAGCCUUACAGUUUGGAGGUGUGUUUGGCCGGCUCGGAUAUUUCUAGUUUGUCAAAGGCUGUACACUGUUACUGCCAGUUUGACCUACAUACUGUGUUCCAACAGAGGAUUGAGCAUCA
B9: chr16:42174308:42174309:+_ENSMUSG00000061080_ENSMUST00000099761|mus_mus|motif|central (ssRNA)
RNA: GGGAGUUCUACAGUCCGACGAUCGUAUCUGUGUGACGCAUUUUUGUGUGUUUUUGUAAUUAUUUUUAAAUUUUUAUUCGGUUAACAUUUGCUGAGAAGGCAGAACAGGGACGCUGCCAGCAGCCACAGUGGUACGGCCAGACUCAACAGAGGAUUGAGCAUCA
B10: chr2:179515052:179515053:+_ENSMUSG00000000305_ENSMUST00000000314|mus_hu|mus_mus_mus_hu_False|28_28 (ssRNA)
RNA: GGGAGUUCUACAGUCCGACGAUCGCUGUCCCAUGCAGUCACCGUGAACGCCACCUGCUCGGAGGGGACCUGCAGCUCCCGGGUGGCGAAGACUGUCCCAUCUGCCCCGACUUUGAAGUCCAUGCUGUUGGUCUCAUAUUGUGUCAACAGAGGAUUGAGCAUCA
B11: chr8:74858975:74858976:-_ENSG00000154582_ENST00000284811|hu_mus|hu_hu_hu_mus_True|1_88 (ssRNA)
RNA: GGGAGUUCUACAGUCCGACGAUCGACCUUGUAGGUAAAAUACAUGCAUACUUUCGAUAGCACAUGUGAGGGGAUCUCUCUAAAAUUGACCUCGUUGGUUUCAUUCUCAGCAAACUGACCUGGACCACUCAACAUAGCUUUUAUCAACAGAGGAUUGAGCAUCA
B12: 110765429_110765549_871_CDS_ENSG00000174437_ENST00000539276|human|control|control (ssRNA)
RNA: GGGAGUUCUACAGUCCGACGAUCUAUGAUCCAGACUGCAAUGCAAAUAAGGGAGAUGACUUUGGAAAGCUGUUCCCCAAAUUCAUCUAGUUUUUGCUGAAGGGGUGUUCUCUCCUGUUCUGUUGCCACCAUUUCAUCCCGGAUCAACAGAGGAUUGAGCAUCA
B13: chr1:46159212:46159213:+_ENSG00000159596_ENST00000372025|hu_mus|hu_hu_hu_mus_True|58_98 (ssRNA)
RNA: GGGAGUUCUACAGUCCGACGAUCUCUGAUCCCUCCCAAGAAAGAUAGGAAACCGGCUCCAUAAGCCAUCUGAGUGAAAGCUAAUAUGGGGAUAUAAGACUUUGUUAUUACCAUGAGAAGUGGGGGAGCAGUAAAGGGGAUUAACAACAGAGGAUUGAGCAUCA
B14: chr5:113341905:113341906:-_ENSMUSG00000042249_ENSMUST00000065167|mus_mus|FALSE|FALSE (ssRNA)
RNA: GGGAGUUCUACAGUCCGACGAUCAUGGGAACUCUCAAACAGCCAUGUAUCAUAAACCCAUCUGGCUCCUCCUCCCACCCUAUGGAUCCAGGACACACCCUAGCCACAUGCCAGGGUGGAAAGAUGGCCUUUGAGAUGGCGCUACAACAGAGGAUUGAGCAUCA
B15: chr4:17845017:17845018:+_ENSG00000109805_ENST00000514176|hu_mus|hu_hu_hu_mus_False|38_58 (ssRNA)
RNA: GGGAGUUCUACAGUCCGACGAUCGCUCUCUUAACUUGUAUCUUCAUUAAGGAACUCUGCAAGGUUAAGUUUACUUUUUCUAGUGCUAGCUGUUUUGCUCGUCUUGGGUAAUCUCAUCUUCAUUUCUGAUGGUGGUUCAUGAUCCAACAGAGGAUUGAGCAUCA
B16: 53432583_53432801_1820_CDS_ENSG00000072501_ENST00000322213|human|control|control (ssRNA)
RNA: GGGAGUUCUACAGUCCGACGAUCUUUCUCAUCUGUAGGCUUCACCUCCAGGUAGUCAAGAGGCAAGAAGGUCUCAGGCUCCCCACGCUGCUCCUUGAUAUACUGAAUACAGUCCCGGCCUGUCUUCUCCGAGUCCACAAUAAUCAACAGAGGAUUGAGCAUCA
B17: chr11:87793471:87793472:-_ENSMUSG00000020483_ENSMUST00000020775|mus_mus|mus_mus_mus_hu_False|18_28 (ssRNA)
RNA: GGGAGUUCUACAGUCCGACGAUCUGGACUUGAAAAUAAAAGAAUAAGCUGGAUCCCCCACCCCCCCACAUUGUCAACCCUACACGAGAGUUUUGAAGGCGACUCAUGAAUCAGCAGCUCAAUUGGCGCAAUGACCACCCCACCCAACAGAGGAUUGAGCAUCA
B18: chr18:48447474:48447475:+_ENSG00000082212_ENST00000321341|hu_hu|FALSE|FALSE (ssRNA)
RNA: GGGAGUUCUACAGUCCGACGAUCCCAGAUUUUCUUUUGUGCCUCUUGUUCUGACAGGCCAUUUUCUACCAUAGACAUAACUAUAAGAUUUGCAAUUCCAAGAGCAGCCUCUCCUGCUCCAAGGAAUAAGAUUUUGUGUUCGGACAACAGAGGAUUGAGCAUCA
B19: 32373031_32373151_2283_3pUTR_ENSG00000184007_ENST00000602725|human|control|control (ssRNA)
RNA: GGGAGUUCUACAGUCCGACGAUCAAAAUGCUACUACACCGCUUCACAAGCAACACAGUCCCUUCACUACUCAUUGGGUUGCACGAUGUCUCUCUUCUACCCUGUUAUGGCCUGUGGACACAUACUCACUAGGCAUCAUUGUUGCAACAGAGGAUUGAGCAUCA
B20: chr1:220276048:220276049:+_ENSG00000067704_ENST00000302637|hu_hu|hu_hu_hu_mus_True|18_108 (ssRNA)
RNA: GGGAGUUCUACAGUCCGACGAUCGCAAACAGCUUCAUUGGCGGGAAUUGUCCAAGGCUGGGUGGUCCAAACUAAAACGCUAACAGGGGAUGAGGCAUCUGUAAGAGACUCCAACUUUGGAGAAGGCCUCAGGAGGGGGAAUCUCAACAGAGGAUUGAGCAUCA
B21: 10679844_10679964_1776_3pUTR_ENSG00000112977_ENST00000230895|human|control|control (ssRNA)
RNA: GGGAGUUCUACAGUCCGACGAUCGGGAGGAGGGGCGCUGGGUCUGACCAGGUCUGCCUCUGCCCUCACCAGCUGGCAGACGUGAACUGGAGAACAGCACCAGAAAGGCUGGUGGUUGGCAGCUGCUCACGACACAGUUGCUGACAACAGAGGAUUGAGCAUCA
B22: 45394732_45394852_793_3pUTR_ENSMUSG00000022661_ENSMUST00000163230|mouse|control|control (ssRNA)
RNA: GGGAGUUCUACAGUCCGACGAUCUCACAUUCCCCAGGUAUAAAACCUGGCAGAUCACUUCCUUCCCAACUUGAGUUUUGGGGUCUUUGACCCGGAGGAUGCUGGUGACAGAUGUAGUCCCAUUUGAAUGGAAGUGACUCUCGGCAACAGAGGAUUGAGCAUCA

The target of this test is T1, UNK ZnF1-3. The test is described as follows: nsRBNS (natural sequence RNA bind-n-seq); RBNS binding buffer (assumed for nsRBNS): 25 mM Tris pH 7.5, 150 mM KCl, 3 mM MgCl2, 0.01% Triton X-100, 500 ug/ml BSA, 20 U/ml SUPERase-In, 4 C; UNK is unkempt and MSI1 is Musashi-1; names of the RNAs are library labels; protein concentration not given here; high values mean tight binding.
B1 yielded a binding signal of 1.42 enrichment R.
With B2, the binding signal worked out at 0.983 enrichment R.
The result for B3 reads 0.572 enrichment R; that for B4, 0.595 enrichment R; that for B5, 0.28 enrichment R.
Take B6: the binding signal amounted to 1.91 enrichment R.
As for B7, the binding signal came out at 1.24 enrichment R.
B8 showed a binding signal of 0.37 enrichment R.
On to B9, for which the binding signal was found to be 2.94 enrichment R.
For B10, the binding signal came out at 0.719 enrichment R.
In the case of B11 it was 0.856 enrichment R.
The molecule B12 yielded a binding signal of 0.676 enrichment R.
The molecule B13 displayed a binding signal of 1.55 enrichment R.
In the case of B14 it was 0.229 enrichment R.
Molecule B15 returned a binding signal of 0.298 enrichment R.
As to B16, the binding signal worked out at 1.1 enrichment R.
For B17, the binding signal was 1.46 enrichment R.
In the case of B18 it was 0.636 enrichment R; in that of B19, 0.984 enrichment R; in that of B20, 2.1 enrichment R.
In the case of B21 it was 0.852 enrichment R.
On to B22, for which the binding signal worked out at 0.891 enrichment R.
